The conditions of this data set: G8 compared with G5 (Fig. 1B).

Consider FQVVKFRFWVWWFRWR [G8], for which the Cytotoxicity result is reported as “lower cytotoxicity”.

The values are drawn from PMC7722873 (Scientific Reports, 2020).
